In PubChem BioAssay AID1346428 (National Center for Advancing Translational Sciences (NCATS), 2018) one finds activation data, which are given here for 84 compounds.

Values joined by “and” are separate entries in the source; they are usually repeats but may differ in a detail not shown here. Equal values may be shown once. About 1,200 (2.5%) of roughly 48,000 compounds were called active. Not shown: some 2% with an inconclusive outcome.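 The calls were made as follows: active = activation of at least 60% and not above a set upper limit (about 1 call in 100 departs from these limits); inconclusive = activation of 40% to 60%, or above that upper limit; inactive = activation under 40%.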 Some of the results follow.

UniProt O75388, sequence (O75388 whole entry, looked up): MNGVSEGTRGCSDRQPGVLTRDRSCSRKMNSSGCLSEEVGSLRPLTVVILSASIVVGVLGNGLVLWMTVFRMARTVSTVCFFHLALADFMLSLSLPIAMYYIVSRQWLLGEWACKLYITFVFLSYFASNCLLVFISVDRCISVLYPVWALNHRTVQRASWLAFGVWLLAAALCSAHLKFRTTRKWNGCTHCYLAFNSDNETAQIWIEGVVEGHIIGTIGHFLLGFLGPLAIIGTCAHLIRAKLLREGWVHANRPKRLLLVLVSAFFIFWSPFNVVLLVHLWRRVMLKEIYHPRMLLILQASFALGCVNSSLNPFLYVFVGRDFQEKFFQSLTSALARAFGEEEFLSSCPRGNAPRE

The assay deals with Probable G-protein coupled receptor 32 (Homo sapiens) (UniProt O75388). As to the kind of experiment: qHTS for Agonists of Human Resolvin D1 Receptor DRV1. Also: 0% is about no effect. The settings on record: CHO-K1 GPR32 beta-arrestin PathHunter luminescence, 90 min; at 76.9 µM; hits give high values; zero percent set by DMSO-only wells. In outline:
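Luminescent readout of beta-Gal complementation quantifies ligand-induced beta-arrestin association with GPR32 in CHO-K1 cells; 90 min compound incubation at 37 °C, detection 1 h at room temperature.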
Background: Quantitative high-throughput screening tests each substance at several concentrations.
Regarding `COc1ccccc1OCC(=O)Nc1nnc2n1CCS2`, the activation was inactive: -21.2%. As for `C[C@@H](NCCc1ccc(O)cc1)[C@@H](O)c1ccc(O)cc1`, the figure is inactive: -0.184%. `COc1cc2ccccc2cc1C(=O)N1CCN(c2nc3c(C)cc(C)cc3s2)CC1`: the activation is inactive: -5.76%. As for `CC1CCN(c2nnc(-n3cccc3CNc3cccc(F)c3)s2)CC1`, the figure is inactive: -3.78%; as for `CCOc1ccc(-n2cc(C(=O)Nc3ccccc3OCC)c3cc(OC)c(OC)cc3c2=O)cc1`, inactive: -10.3%; as for `Cc1cccc(NC(=O)C2CCN(S(=O)(=O)c3cccc4nsnc34)CC2)c1`, inactive: 18.9%. As for `CCC(C)NC(=O)Cn1c(=O)n(CC2CCC(C(=O)NC)CC2)c(=O)c2sccc21` (centres undefined), the figure is inactive: -8.25%; as for `CCC(C(=O)OCCN1CCOC(c2ccccc2)C1C)c1ccccc1` (centres undefined), active: 61.8%; as for `Cc1ccc2nc(-c3ccccc3O)c(Nc3ccccc3C)n2c1`, inactive: -18%. To `CCc1ccccc1NC(=O)N1CCN(c2nnc(C)c3c(C)n(-c4ccccc4)nc23)CC1` belongs inactive: 8.87%; to `CCOC(=O)c1c(NC(=O)CS(=O)(=O)c2ccc(C)cc2)sc2c1CCC(C)C2` (centres undefined), inactive: -31.5%. Consider `CC1CCN(C(=O)Cn2cc(SCc3cccc(F)c3)c3ccccc32)CC1`, for which the activation is inactive: -31%. To `Cc1cccc(OCC(=O)Nc2nonc2-c2ccc(Br)cc2)c1C` belongs inactive: 49.1%; to `CCCN1C(=O)C(O)(CC(=O)c2ccc(CC)cc2)c2cc(Br)ccc21` (centres undefined), inactive: 27.1%. To `Cc1cccc(C)c1-n1ncc(C(=O)NCc2ccc3c(c2)OCO3)c1C1CCN(C(=O)OC(C)(C)C)CC1` belongs inactive: -40.4%; to `CCc1ccc(OCC(=O)N(Cc2ccc(C)cc2)Cc2ccco2)cc1`, inactive: 36.8%.

On to `O=C(COc1ccc(Cl)cc1)Nc1sc2c(c1C(=O)Nc1cccc(Cl)c1)CCCC2`, for which the activation is inactive: -1.22%. To `CCOc1ccc(CC(=O)Nc2ccc3c(c2)N(C)C(=O)c2ccccc2S3)cc1OCC` belongs inactive: -17%. As for `CCCCN(C)CCCNC(=O)c1cc(=O)[nH]c2ccc(S(=O)(=O)N3CCCCC3)cc12`, the figure is inactive: -1.76%; as for `CC(=O)N1c2ccc(S(=O)(=O)NCC3CCC(C(=O)Nc4ccccc4C)CC3)cc2CC1C` (centres undefined), inactive: -4.94%; as for `O=C(Nc1ccc(OC(F)(F)F)cc1)C1CCCN(S(=O)(=O)c2cccc3nonc23)C1` (centres undefined), inactive: 33.7%. To `Nc1ncnc2c1nc(Br)n2C1OC2COP(=O)(O)O[C@@H]2C1O` (some centres undefined) belongs inactive: 6.98%.

For `COCCCNC(=O)CN1C(=O)COc2ccc(S(=O)(=O)N3CCCCCC3)cc21`, the activation was inactive: 5.28%.

For the compound `COc1ccc2c(c1)CCc1sc(NC(=O)c3ccc(Cl)cc3)nc1-2`, the activation was inactive: -29.7%. To `CCC1=Nc2cc(C(=O)NC(C)c3ccccc3)ccc2Sc2ccc(Cl)cc21` (centres undefined) belongs inactive: 2.79%. Regarding `Ic1ccc(N2CCN(Cc3c[nH]c4ncccc34)CC2)cc1`, the activation is active: 76.1%. Take `Cc1cccc(-n2cc(-c3ccccc3)c3c(NC(C)C)ncnc32)c1`: the activation is inactive: -12.8%. As for `CC1CCN(S(=O)(=O)c2cn(CC(=O)Nc3ccc(F)c(Cl)c3)c(=O)c3ccccc23)CC1`, the figure is inactive: 35.5%; as for `Cc1ccc(NC(=O)CCc2c(C)nc3c(-c4ccccc4)c(C)nn3c2C)c(C)c1`, inactive: 11.4%.

Regarding `COc1ccc(-n2c(=O)c3ccccc3n(CC(=O)NCCc3ccccc3)c2=O)c(OC)c1`, the activation was inactive: -8.45%. To `O=C(CSc1nccn1-c1cccc(Cl)c1)Nc1cccc(C(F)(F)F)c1` belongs inactive: 6.71%. With `CN(Cc1ccccc1)C(=O)CCS(=O)(=O)c1cc(Br)cc2c1N(C(=O)C1CC1)CC2`, the activation is inactive: -5.45%. As for `Cc1ccc(NC(=O)CSc2nc(-c3ccc(F)cc3)nc3c2Cc2c(CO)cnc(C)c2O3)cc1C`, the figure is inactive: 0.397%; as for `COC(=O)c1ccccc1NC(=O)CN(c1ccccc1OC)S(C)(=O)=O`, inactive: -7.55%; as for `CCn1c(=NC(=O)c2ccc(S(=O)(=O)N3CCCCC3)cc2)sc2cccc(OC)c21`, inactive: 19.5%. As for `CCc1nn2c(-c3ccccc3OC)ccnc2c1-c1ccc(F)cc1`, the figure is inactive: 0.127%; as for `CCOC(=O)c1cccc(NC(=O)CC(c2cc(OC)c(OC)c(OC)c2)N2Cc3ccccc3C2=O)c1` (centres undefined), inactive: -7.91%. To `CCOC(=O)C1CCN(c2c(C(=O)c3ccc(OCC)cc3)cnc3ccc(OC)cc23)CC1` belongs inactive: -44.6%.

`Oc1c(C(c2ccccc2F)N2CCOCC2)sc2nc(-c3ccco3)nn12` (centres undefined): the activation was inactive: -12.5%. To `COc1ccc(CCNc2nc(-c3ccc(C)cc3)cc(C(F)F)n2)cc1OC` belongs inactive: -2.56%; to `COC(=O)c1ccc(NC(=O)CCc2c(C)nc3c(c(C)nn3-c3ccc(C)cc3)c2C)cc1`, inactive: -18.2%; to `CC(NC(=O)CSc1n[nH]c(-c2ccccc2Cl)n1)c1nc2ccccc2n1C` (centres undefined), inactive: 0.48%.

In the case of `Cc1c(Cl)cccc1NC(=O)CC(c1cccs1)N1Cc2ccccc2C1=O` (centres undefined), the activation was inactive: -3.49%.

Regarding `CCN(c1ccccc1)S(=O)(=O)c1ccc2[nH]cc(C(=O)NC3CCCCC3)c(=O)c2c1`, the activation was inactive: 29.5%. To `Cc1nc2c(C(=O)NCc3ccccc3Cl)c[nH]n2c(=O)c1Cc1cccc(Cl)c1` belongs inactive: 22%; to `COc1c(C)cc(S(=O)(=O)Nc2cccc(-c3ccc(N4CCOCC4)nn3)c2)c(C)c1C`, inactive: -0.251%; to `CCOc1ccc(NC(=O)CN2CCN(Cc3ccccc3)S2(=O)=O)cc1`, inactive: -1.55%.

Take `CCCCN(C)CCCNC(=O)CN1C(=O)COc2ccc(S(=O)(=O)N3CCC(C)CC3)cc21`: the activation was inactive: -0.101%.

For `CCOC(=O)N1CCc2c(sc(NCc3sccc3C)c2C(=O)Nc2cc(OC)ccc2OC)C1`, the activation was inactive: -8.25%.

As to `COc1cccc(NC(=O)CSc2cc(=O)n(C)c3ccc(Cl)cc23)c1`, the activation was active: 66.2%.

Regarding `Cc1cc(=O)[nH]c2nnc(SCc3ccc(Cl)c(Cl)c3)n12`, the activation was inactive: 1.28%. To `CCOc1ccccc1-n1c(C)nc2cc(C(=O)O)ccc21` belongs inactive: 6.65%. To `CCCCNC(=O)C1CCN(C(=O)N2CC(C)Oc3ccc(Cl)cc32)CC1` (centres undefined) belongs inactive: 7.75%; to `CCOc1ccccc1NC(=O)CN1C(=O)COc2ccc(S(=O)(=O)N3CCCCCC3)cc21`, inactive: -14.7%; to `COc1ccc(NC(=O)c2c(C(=O)Nc3ccccc3)sc3nc(C)cc(=O)n23)cc1`, inactive: -24%.

Turning to `CCOc1ccccc1NC(=O)Cc1coc2c(C)c(C)ccc12`, the activation was inactive: -6.57%.

Turning to `Cc1cccc(C(=O)N2CCc3cc(CNC(=O)c4ccnn4C)ccc32)c1`, the activation is inactive: -6.96%. As for `Cc1ccc(CCNC(=O)C(CC(C)C)NS(=O)(=O)c2ccc3c(c2)oc(=O)n3C)cc1` (centres undefined), the figure is inactive: -2.46%; as for `Cn1cnc(S(=O)(=O)N2CCCC(C(=O)NCc3ccccc3Cl)C2)c1` (centres undefined), inactive: -9.35%.

For the compound `N#C/C(=C\c1ccc(F)cc1)C(=O)NCC1CCCO1` (centres undefined), the activation was inactive: 16.5%. As for `O=c1cc(-c2ccccc2)nc(SCc2nc(-c3ccc(C(F)(F)F)cc3)no2)[nH]1`, the figure is inactive: -2.19%; as for `COc1ccc(CNC(=O)CCc2cn(Cc3cc(C)ccc3C)c3ccccc23)cc1OC`, inactive: -35.8%. Take `CC(C)(C)c1ccc(-c2nc3cc(NC(=O)c4cc5ccccc5o4)ccc3o2)cc1`: the activation was inactive: -0.403%. For the compound `CCCOc1ccc(-c2nc3ccccc3c(=O)o2)cc1`, the activation is inactive: 41.9%. As for `CCc1cccc(N(C)C(N)=Nc2cccc3ccccc23)c1`, the figure is inactive: 26.6% and inactive: 12.9%; as for `COc1ccc(NC(=O)NC2COc3ccccc3C2)c(OC)c1` (centres undefined), inactive: -19.7%.

In the case of `Cc1c(C(=O)Nc2nc(-c3ccc(F)cc3)ns2)oc2ccc(Br)cc12`, the activation was inactive: -1.59%.

`CC(=O)NS(=O)(=O)c1ccc(N)cc1`: the activation is inactive: -14.6%.

As for `CC(C)c1ccc(NC(=O)C2CCN(S(=O)(=O)c3cccc4nsnc34)CC2)cc1`, the activation is inactive: 30.9%. Consider `O=C(Cn1ccn(-c2cccc(Cl)c2)c(=O)c1=O)NCCc1ccccc1`, for which the activation is inactive: -8.84%. With `COc1ccc2c(c1)cc(CNc1ccc(OC)c(OC)c1)c(=O)n2CC(=O)Nc1ccc(F)cc1`, the activation is inactive: -55.1%.

`COc1ccccc1CNC(=O)CCCCn1c(=O)c2ccccc2n(Cc2c(C)cc(C)cc2C)c1=O`: the activation was inactive: 0.879%.

Regarding `COc1ccc(CNC(=O)Cn2c(=O)oc3cc(S(=O)(=O)N4CCCCCC4)ccc32)cc1`, the activation is active: 60.6%.

In the case of `COc1ccc(N2CCN(C(=O)CCc3c(C)nc4c(-c5ccccc5)c(C)nn4c3C)CC2)cc1`, the activation is inactive: -1.12%. With `O=S(=O)(NCC(c1ccco1)S(=O)(=O)c1ccccc1)c1ccccc1` (centres undefined), the activation was inactive: -11.5%. For `Cc1c(C(=O)Nc2ccc(F)c(F)c2)oc2ccc(S(=O)(=O)N3CCCCC3)cc12`, the activation was inactive: 8.96%. As for `COc1ccccc1CNC(=O)CCc1c(C)c2ccc(OC)c(C)c2oc1=O`, the figure is inactive: -3.28%; as for `Cc1cn([C@H]2C=C[C@@H](CO)O2)c(=O)[nH]c1=O`, inactive: -15.4% and inactive: 0.461%. To `Cc1cc(N2CCN(C)CC2)nc2ccc(NC(=O)Nc3ccccc3Br)cc12` belongs active: 103%; to `CCOc1ccc(S(=O)(=O)N(CC(=O)Nc2cccnc2)c2ccccc2)cc1`, inactive: 13.2%; to `Cc1cc(C)n2nc(SCC(=O)Nc3cc(Cl)ccc3C)nc2n1`, inactive: -1.4%. With `COc1ccc(CCNC(=O)c2ccc3c(c2)N(Cc2ccc(C)cc2)CCS3)cc1OC`, the activation was inactive: -18.6%. To `CC1=C(C(N)=O)C(c2ccc(C(C)C)cc2)n2nc(SCc3ccccc3)nc2N1` (centres undefined) belongs inactive: -3.09%. As for `CCOc1ccccc1C1C(C(=O)Nc2ccccc2)=C(C)Nc2c(C(=O)Nc3ccc(F)cc3)cnn21` (centres undefined), the figure is inactive: -19.3%.
